# Some of these densities may be calculated back from excess volumes.
# Assay: xn = mol fraction of the nth substance listed
# Conditions: 100 kPa
compound,measurement,setting,value
CCCC[n+]1ccn(C)c1.O=S(=O)([N-]S(=O)(=O)C(F)(F)F)C(F)(F)F + C=CN1CCCC1=O,mass density,"298.15 K, x2 = 0",1433.7 kg/m3
same,mass density,"303.15 K, x2 = 0",1429 kg/m3
same,mass density,"308.15 K, x2 = 0",1424.2 kg/m3
same,mass density,"313.15 K, x2 = 0",1419.4 kg/m3
same,mass density,"318.15 K, x2 = 0",1414.6 kg/m3
same,mass density,"323.15 K, x2 = 0",1409.9 kg/m3
C=CN1CCCC1=O + CCCC[n+]1ccn(C)c1.O=S(=O)([N-]S(=O)(=O)C(F)(F)F)C(F)(F)F,mass density,"298.15 K, x1 = 0.1377",1412.3 kg/m3
same,mass density,"298.15 K, x1 = 0.2099",1399.2 kg/m3
same,mass density,"298.15 K, x1 = 0.3148",1377.7 kg/m3
same,mass density,"298.15 K, x1 = 0.4117",1354.2 kg/m3
same,mass density,"298.15 K, x1 = 0.5061",1327.2 kg/m3
same,mass density,"298.15 K, x1 = 0.6078",1292.1 kg/m3
same,mass density,"298.15 K, x1 = 0.7032",1251.6 kg/m3
same,mass density,"298.15 K, x1 = 0.79",1206.2 kg/m3
same,mass density,"298.15 K, x1 = 0.8989",1132.7 kg/m3
same,mass density,"303.15 K, x1 = 0.1377",1407.5 kg/m3
same,mass density,"303.15 K, x1 = 0.2099",1394.5 kg/m3
same,mass density,"303.15 K, x1 = 0.3148",1373 kg/m3
same,mass density,"303.15 K, x1 = 0.4117",1349.5 kg/m3
same,mass density,"303.15 K, x1 = 0.5061",1322.5 kg/m3
same,mass density,"303.15 K, x1 = 0.6078",1287.4 kg/m3
same,mass density,"303.15 K, x1 = 0.7032",1247 kg/m3
same,mass density,"303.15 K, x1 = 0.79",1201.6 kg/m3
same,mass density,"303.15 K, x1 = 0.8989",1128.2 kg/m3
same,mass density,"303.15 K, x1 = 1",1035 kg/m3
same,mass density,"308.15 K, x1 = 0.1377",1402.8 kg/m3
same,mass density,"308.15 K, x1 = 0.4117",1344.8 kg/m3
same,mass density,"308.15 K, x1 = 0.5061",1317.8 kg/m3
same,mass density,"308.15 K, x1 = 0.6078",1282.7 kg/m3
same,mass density,"308.15 K, x1 = 0.7032",1242.3 kg/m3
same,mass density,"308.15 K, x1 = 0.79",1197 kg/m3
same,mass density,"308.15 K, x1 = 0.8989",1123.6 kg/m3
same,mass density,"308.15 K, x1 = 1",1030.5 kg/m3
same,mass density,"313.15 K, x1 = 0.1377",1398 kg/m3
same,mass density,"313.15 K, x1 = 0.3148",1363.5 kg/m3
same,mass density,"313.15 K, x1 = 0.4117",1340 kg/m3
same,mass density,"313.15 K, x1 = 0.6078",1278 kg/m3
same,mass density,"313.15 K, x1 = 0.7032",1237.7 kg/m3
same,mass density,"313.15 K, x1 = 0.79",1192.4 kg/m3
same,mass density,"313.15 K, x1 = 0.8989",1119.1 kg/m3
same,mass density,"313.15 K, x1 = 1",1026.1 kg/m3
same,mass density,"318.15 K, x1 = 0.2099",1380.3 kg/m3
same,mass density,"318.15 K, x1 = 0.4117",1335.3 kg/m3
same,mass density,"318.15 K, x1 = 0.5061",1308.4 kg/m3
same,mass density,"318.15 K, x1 = 0.6078",1273.4 kg/m3
same,mass density,"318.15 K, x1 = 0.7032",1233 kg/m3
same,mass density,"318.15 K, x1 = 0.79",1187.8 kg/m3
same,mass density,"318.15 K, x1 = 0.8989",1114.5 kg/m3
same,mass density,"323.15 K, x1 = 0.1377",1388.5 kg/m3
same,mass density,"323.15 K, x1 = 0.4117",1330.6 kg/m3
same,mass density,"323.15 K, x1 = 0.5061",1303.7 kg/m3
same,mass density,"323.15 K, x1 = 0.6078",1268.7 kg/m3
same,mass density,"323.15 K, x1 = 0.7032",1228.4 kg/m3
same,mass density,"323.15 K, x1 = 0.79",1183.2 kg/m3
same,mass density,"323.15 K, x1 = 0.8989",1110 kg/m3
same,mass density,"323.15 K, x1 = 1",1017.3 kg/m3

# From a compilation of properties of binary mixtures (doi:10.1016/j.jct.2017.01.014)
